{"source": "paper PMC11251039", "about": "“Harnessing cholesterol uptake of malaria parasites for therapeutic applications” (EMBO Molecular Medicine, 2024)", "key": {"P. berghei liver stages": {"tested_on": "P. berghei liver stages", "experiment": "Plasmodium berghei liver stage growth inhibition assay (luminescence, in Huh7 cells)"}, "[1]": {"tested_on": "P. falciparum stage V gametocytes", "experiment": "P. falciparum gametocyte viability assay (MitoTracker, flow cytometry), stage V", "type": "cell-based, Plasmodium falciparum", "settings": "48 h, replicate values, source data Fig. 2D", "experimental": "Gametocyte assays commenced seven days (stage III–IV) or ten days (stage V) post-invasion. […]\nPlasmodium falciparum Gametocyte Viability Assays:\nAsexual P. falciparum parasites were induced to form gametocytes as described (21).\nSynchronized trophozoite-stage parasites at 2% parasitaemia were incubated overnight and […]\nhaematocrit maintained at 4%. On the subsequent day (designated as day 0) of gametocytogenesis, the culture containing early ring-stage parasites was first purified by sorbitol synchronisation to remove asynchronous trophozoites, and passed through a magnetic field in a sterile MACS® column in a SuperMACSTM II magnet to remove remaining late-stage parasites or later-stage gametocytes (negative selection). The culture medium was supplemented with 50 mM N-acetyl-D-glucosamine to inhibit asexual parasite proliferation, and changed daily. Sorbitol treatment was performed on Day 1, 5, and 6 to further remove asexual parasites. Gametocytes were magnetically enriched (positive selection) in a sterile column with a SuperMACSTM II magnet and eluted in culture media with 50 mM N-acetyl-D-glucosamine. These gametocytes were incubated overnight at 37 °C under microaerophilic conditions, and purity was assessed by examination under a light microscope (400× […]\nGametocyte viability was assessed as described by Ridgway et al. (21) with modifications.\nCompounds or solvent controls (DMSO) were serially diluted across 96-well plates in culture media supplemented with 50 mM N-acetyl-D-glucosamine. Culture media without compound was used as a negative control. […]\ncontrol to determine background gametocyte fluorescence. Stage III-IV gametocytes (Day 7) or stage V (day 10) gametocytes were concentrated and added to the plate with 200 µL per well. The plate was incubated for 48 hours at 37 °C under humid microaerophilic conditions.\nParasites were then stained with 500 nM MitoTrackerTM Deep Red FM and 5 μg/ml Hoechst […]\ncytometer as described above. […]\nexcluded. Live (positive) and dead (negative) gametocytes were differentiated by […]\npercentage of each was calculated. […]"}, "[2]": {"tested_on": "asexual P. falciparum 3D7 wild-type parasites", "experiment": "P. falciparum asexual growth inhibition assay (SYBR Safe DNA replication)", "type": "cell-based, Plasmodium falciparum", "set-up": "unit not given here", "settings": "individual replicates", "experimental": "P. falciparum asexual parasite assays commenced with ring-stage parasites at 1% parasitaemia and 1% haematocrit. 200 nM chloroquine (Sigma C6628) or artesunate (Sigma A3731) was used as a no-growth control. DNA replication (indicating growth) was measured at the specified time using SYBR Safe DNA Gel Stain (Invitrogen 33102) and a fluorescence microplate reader (Smilkstein et al, [2004]; Spry et al, [2013]). […]\nGrowth and Viability Inhibition Assays:\nPlasmodium falciparum Growth Inhibition Assays:\nP. falciparum parasites were maintained under routine culture conditions in red blood cells and RPMI 1640-Hepes with Glutamax, supplemented with 10 mM D-glucose, 480 μM hypoxanthine, 20 μg/mL gentamicin, 0.375% (w/v) AlbuMAXTM II (Thermo Fisher 11021029), and 2.5% v/v heat-inactivated human serum (17). Cultures were maintained at 37 °C […]\nwildtype parasites except for the ring stage survival assay, as specified. Cultures were synchronised with 5% w/v D-sorbitol (18).\nGrowth inhibition was investigated according to methods described by Smilkstein et al. (19) with modifications by Spry et al. (20). Compounds or solvent controls (DMSO, ethanol, or ethyl acetate) were serially diluted 2-fold across flat-bottom 96-well plates. Culture media without compound was used as a negative control. 200 nM chloroquine (Sigma C6628) or artesunate (Sigma A3731) was used as a positive control to determine background fluorescence. The parasitaemia of a culture containing predominantly ring stage parasites was counted by Giemsa smear. The parasitaemia was adjusted to 1% by addition of fresh uRBCs and added to the plate at a final haematocrit of 1%, with 200 µL per well. The plates were incubated at 37 °C under humid microaerophilic conditions. After 24, 48, or 72 hours, the plates were transferred to a -18 °C freezer to stop the assay and lyse cells. Plates were thawed and lysate was mixed 1:1 with SYBR Safe DNA Gel Stain (Invitrogen 33102) (final concentration 1/10,000) diluted in lysis buffer (20 mM TRIS, 5 mM EDTA, 0.008% w/v Saponin, 0.08% w/v Triton-X 100, pH 7.5). Fluorescence was detected at 490 nm excitation/ 520 nm emission on a FLUOstar Optima fluorescence plate reader (BMG Labtech)."}}, "note": "Several values for one entry are separate records, joined by “and”; a condition that tells them apart may be missing. Identical values can stand only once. The source gives many values for each of these; only a part stands here.", "data": [{"smiles": "CC(C)OC(=O)CCC(=O)O[C@H]1CC[C@H]2[C@@H]3CC=C4C[C@@H](O)CC[C@]4(C)[C@H]3CC[C@]12C", "note": "[C-17-link]", "values": [{"measurement": "Figure 3E dose-response value (replicates)", "setting": "P. berghei liver stages; 0.146484380 uM, listed as HJB8a53", "value": "90.79 and 78.12 and 89.75 and 97.61 and 99.99 and 98.63 and 88.77 and 86.39 and 83.1 and 99.95 and 100.6 and 95.29"}, {"measurement": "Figure 3E dose-response value (replicates)", "setting": "P. berghei liver stages; 0.292968750 uM, listed as HJB8a53", "value": "95.19 and 94.42 and 99 and 104.1 and 87.97 and 92.72 and 101.8 and 92.86"}, {"measurement": "Gametocyte stage V viability, percentage of control", "setting": "[1]; 3.125000000 uM, listed as HJB8a53, 3.125 µM", "value": "102.3% and 104% and 93.7% and 112.7% (2×) and 92.07% and 106.5% and 101.7% and 98.77%"}, {"measurement": "Gametocyte stage V viability, percentage of control", "setting": "[1]; 6.250000000 uM, listed as HJB8a53, 6.25 µM", "value": "98.33% and 94.03% and 100.5% and 100.6% and 87.88% and 104.3% and 102.9% and 99.6%"}, {"measurement": "Gametocyte stage V viability, percentage of control", "setting": "[1]; 12.500000000 uM, listed as HJB8a53, 12.5 µM", "value": "95.22% and 89.73% and 104% and 99.1% and 91.22% and 105.8% and 107.5% and 102.2%"}, {"measurement": "Gametocyte stage V viability, percentage of control", "setting": "[1]; 25.000000000 uM, listed as HJB8a53, 25 µM", "value": "91.73% and 91.59% and 92.22% and 97.42% and 94.87% and 81.03% and 110.7% and 111.2% and 112%"}, {"measurement": "Gametocyte stage V viability, percentage of control", "setting": "[1]; 50.000000000 uM, listed as HJB8a53, 50 µM", "value": "75.77% and 59.8% and 55.21% and 99.78% and 99.3% and 100.6%"}]}, {"smiles": "CC(C)CCC[C@@H](C)[C@H]1CC[C@H]2[C@@H]3CC=C4C[C@@H](O)CC[C@]4(C)[C@H]3CC[C@]12C", "note": "[Cholesterol, cholesterol]", "values": [{"measurement": "Figure 5B dose-response source data (growth, replicate values)", "setting": "[2]; Concentration 6.25 uM", "value": "101.6 and 99.26 and 99.31 and 98.29 and 102.8 and 99.42 and 104.4 and 95.79 and 103.3 and 96.14 and 91.63 and 97.29 and 100.5 and 102.7 and 101.1 and 98.36 and 94.97 and 94.59 and 95.55 and 99.39 and 95.02 and 99.46 and 99.52 and 99.91"}, {"measurement": "Figure 5B dose-response source data (growth, replicate values)", "setting": "[2]; Concentration 12.5 uM", "value": "96.51 and 99.41 and 95.16 and 101 and 102.3 and 98.39 and 106.9 and 102.4 and 101.7 and 97.74 and 91.35 and 94.52 and 98.72 and 99.19 and 99.51 and 98.63 and 99.71 and 94.45 and 102.1 and 99.24 and 95.53 and 100.2 and 99.61 and 97.62"}, {"measurement": "Figure 5B dose-response source data (growth, replicate values)", "setting": "[2]; Concentration 25 uM", "value": "104.5 and 98.95 and 98.24 and 96.83 and 100.4 (3×) and 98.96 and 105.9 and 103.2 and 102.2 and 98.9 and 96.25 and 93.37 and 102 and 90.39 and 101.7 and 103.5 and 97.16 and 99.16 and 97.58 and 97.63 and 97.76 and 100.6"}, {"measurement": "Figure 5B dose-response source data (growth, replicate values)", "setting": "[2]; Concentration 50 uM", "value": "105.5 and 103.2 and 99.32 and 111.9 and 112.8 and 111.5 and 109.4 and 103.5 and 98.62 and 94.35 and 86.9 and 89.19 and 90.74 and 91.87 and 96.95 and 99.38 and 95.61 and 91.66 and 96.98 and 98.91 and 100.4 and 94.97 and 99.41 and 95.99"}, {"measurement": "Figure 5B dose-response source data (growth, replicate values)", "setting": "[2]; Concentration 100 uM", "value": "107.1 and 101 and 101.2 and 91.32 and 91.42 and 102 and 108.7 and 103.8 and 102.1 and 93.61 and 89.6 and 96.17 and 88.16 and 93.69 and 102.9"}, {"measurement": "Figure 5B dose-response source data (growth, replicate values)", "setting": "[2]; Concentration 200 uM", "value": "96.83 and 98.35 and 97.37 and 112.6 and 105.5 and 95.82 and 90.9 and 97.54 and 99.36 and 99.34 and 99.77 and 101.6"}]}, {"smiles": "COc1cc(NC(C)CCCNC(=O)CCC(=O)OC(C)C)c2ncccc2c1", "note": "(stereo not shown) [PQ-link]", "values": [{"measurement": "Figure 3E dose-response value (replicates)", "setting": "P. berghei liver stages; 0.238281250 uM, listed as BC9B", "value": "93.15 and 103.5 and 101.7 and 106.3 and 90.54 and 94.19 and 89.14 and 93.63 and 95.68 and 95.58"}, {"measurement": "Gametocyte stage V viability, percentage of control", "setting": "[1]; 3.125000000 uM, listed as BC9B, 3.125 µM", "value": "101.8% and 103.7% and 94.55% and 118.3% and 107.7% and 99.73% and 98.74% and 100.8% and 99.04%"}, {"measurement": "Gametocyte stage V viability, percentage of control", "setting": "[1]; 6.250000000 uM, listed as BC9B, 6.25 µM", "value": "114% and 106.6% and 105.1% and 110.1% and 99.87% and 97.45% and 101.5% and 95.48%"}, {"measurement": "Gametocyte stage V viability, percentage of control", "setting": "[1]; 12.500000000 uM, listed as BC9B, 12.5 µM", "value": "112.9% and 98.39% and 99.38% and 104.7% and 104% and 107% and 107.3% and 101.1%"}, {"measurement": "Gametocyte stage V viability, percentage of control", "setting": "[1]; 25.000000000 uM, listed as BC9B", "value": "92.32% and 86.87% and 97.01% and 99.59% and 94.68% and 100.4% and 103.8% and 98.04%"}, {"measurement": "Gametocyte stage V viability, percentage of control", "setting": "[1]; 50.000000000 uM, listed as BC9B", "value": "85.37% and 92.77% and 92.47%"}]}, {"smiles": "COc1cc(NC(C)CCCN)c2ncccc2c1", "note": "(stereo not shown) [Primaquine, primaquine, reference compound]", "values": [{"measurement": "Figure 3E dose-response value (replicates)", "setting": "P. berghei liver stages; 1.703125000 uM", "value": "85.28 and 88.56 and 83.73 and 86.56"}, {"measurement": "Gametocyte stage V viability, percentage of control", "setting": "[1]; 0.781250000 uM, 0.78125 µM", "value": "91.21% and 93.39% and 74.28% and 105.6% and 104.2% and 91.9% and 101.3% and 93.78% and 87.93%"}, {"measurement": "Gametocyte stage V viability, percentage of control", "setting": "[1]; 1.562500000 uM, 1.5625 µM", "value": "105.4% and 111.1% and 108.1% and 106.4% and 97.73% and 90.01%"}, {"measurement": "Gametocyte stage V viability, percentage of control", "setting": "[1]; 6.250000000 uM, 6.25 µM", "value": "70.7% and 76.18% and 69.51% and 90.42% and 81.91% and 83.33% and 97.43% and 92.99% and 87.8%"}, {"measurement": "Gametocyte stage V viability, percentage of control", "setting": "[1]; 12.500000000 uM, 12.5 µM", "value": "50.67% and 50.19% and 41.61% and 72.64% and 71.86% and 71.08% and 76.41% and 66.89% and 61.15%"}, {"measurement": "Gametocyte stage V viability, percentage of control", "setting": "[1]; 25.000000000 uM", "value": "11.08% and 12.68% and 6.662% and 21.73% and 24.41% and 21.34% and 46.34% and 43.12% and 32.49%"}, {"measurement": "Gametocyte stage V viability, percentage of control", "setting": "[1]; 50.000000000 uM", "value": "0.4307% and -0.2779% and -0.1528% and 0.1058% and 0.1764% and -0.2822% and 3.679% and 2.542% and 1.792%"}, {"measurement": "Gametocyte stage V viability, percentage of control", "setting": "[1]; 100.000000000 uM", "value": "-0.6113% and -0.5696% and -0.5904% and -0.4586% and -0.635% and -0.5644% and 0.043% and 0.01881% and 0.05106%"}, {"measurement": "Gametocyte stage V viability, percentage of control", "setting": "[1]; 200.000000000 uM", "value": "-0.5904% (2×) and -0.6321% and -0.5644% and -0.5292% and -0.635% and 0.01881% and -0.0215% and 0.002687%"}]}]}
